# The whole screen tested about 310,000 compounds, of which about 2,200 (0.71%) showed an effect of 50% or more. Effects have a minus sign here. The list shows a part of the results.
# Target: human ether-à-go-go-related gene (hERG) potassium channel (human, UniProt Q12809)
# Test: primary screen, population patch clamp on CHO cells stably expressing hERG
# Chain of human ether-à-go-go-related gene (hERG) potassium channel (Q12809 whole entry, looked up): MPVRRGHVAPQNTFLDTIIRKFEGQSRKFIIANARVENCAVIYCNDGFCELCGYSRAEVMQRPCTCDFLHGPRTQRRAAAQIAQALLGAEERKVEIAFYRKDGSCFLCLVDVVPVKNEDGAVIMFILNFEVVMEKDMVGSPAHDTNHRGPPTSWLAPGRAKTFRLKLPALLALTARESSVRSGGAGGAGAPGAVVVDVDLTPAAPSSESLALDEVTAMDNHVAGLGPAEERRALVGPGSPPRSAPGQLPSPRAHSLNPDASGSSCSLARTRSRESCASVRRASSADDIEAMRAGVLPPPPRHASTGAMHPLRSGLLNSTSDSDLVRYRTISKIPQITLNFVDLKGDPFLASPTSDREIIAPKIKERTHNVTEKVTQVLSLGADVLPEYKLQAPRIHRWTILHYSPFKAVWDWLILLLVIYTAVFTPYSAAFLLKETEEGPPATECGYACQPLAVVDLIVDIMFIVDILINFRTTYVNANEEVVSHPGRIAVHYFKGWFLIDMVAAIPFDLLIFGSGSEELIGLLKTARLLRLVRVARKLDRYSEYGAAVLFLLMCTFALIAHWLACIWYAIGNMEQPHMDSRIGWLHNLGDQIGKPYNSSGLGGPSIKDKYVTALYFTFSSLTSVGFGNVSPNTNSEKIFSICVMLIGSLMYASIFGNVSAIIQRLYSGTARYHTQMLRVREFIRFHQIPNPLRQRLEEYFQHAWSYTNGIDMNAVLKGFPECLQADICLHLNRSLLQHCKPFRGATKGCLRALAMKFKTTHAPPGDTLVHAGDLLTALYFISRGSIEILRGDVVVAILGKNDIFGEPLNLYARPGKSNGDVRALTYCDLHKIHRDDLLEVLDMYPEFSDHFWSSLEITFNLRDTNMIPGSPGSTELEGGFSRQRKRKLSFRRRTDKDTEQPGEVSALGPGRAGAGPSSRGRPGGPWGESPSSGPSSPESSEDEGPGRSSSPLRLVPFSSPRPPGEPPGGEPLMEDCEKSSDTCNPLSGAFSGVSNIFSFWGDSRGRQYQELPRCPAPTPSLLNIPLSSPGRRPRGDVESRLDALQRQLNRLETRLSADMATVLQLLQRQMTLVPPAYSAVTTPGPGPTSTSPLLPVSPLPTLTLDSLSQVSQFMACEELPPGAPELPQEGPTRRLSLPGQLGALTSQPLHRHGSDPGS
row,Structure (SMILES),"hERG current change (%, negative = inhibition) at 1uM"
1,CCOC(=O)N1CCN(C(=O)Cc2ccc(Cl)cc2)CC1,4.03%
2,COC(=O)C(NC(=O)Nc1ccccc1OC)C(C)C (stereo not drawn),17.9%
3,N#CCC(=O)N/N=C/c1ccc(OCc2ccccc2)cc1,10.7%
4,O=S(=O)(NCC1CCCO1)c1ccc(S(=O)(=O)N(Cc2ccc(F)cc2)Cc2ccccn2)cc1 (stereo not drawn),6.17%
5,COc1ccc(CNC(=O)CN(Cc2ccccc2F)C(=O)c2csnn2)cc1,-2.99%
6,CC12CCC(=O)N1C(C(=O)NCCN1C(=O)S/C(=C\c3ccc(OC(F)F)cc3)C1=O)CS2 (stereo not drawn),17%
7,COC(=O)CN1C(=S)N(C)C(=O)C1CC(=O)Nc1ccccc1 (stereo not drawn),2.66%
8,O=C1CCCN1c1ccc(S(=O)(=O)NCCc2ccc(Cl)cc2)cc1,-4.53%
9,Nc1ccncc1,6.11%
10,Oc1ccc(C=Nc2ccccc2-c2nc3ccccc3[nH]2)c(O)c1,10.5%
11,Cc1cc(C)nc(N/N=C/c2ccco2)n1,11.9%
12,O=C(Nc1ccc(F)cc1)C1CCC(CNc2c(N3CCCCC3)c(=O)c2=O)CC1 (stereo not drawn),11%
13,CCOCCSc1nc2c(c(=O)[nH]c(=O)n2C)n1CCCc1ccccc1,-2.1%
14,CCOc1cc(N2CCOCC2)c(OCC)cc1NC(=O)COC(=O)/C=C/c1ccc(OC(F)F)cc1,9.44%
15,CCOC(=O)c1ccc(CN(Cc2ccc(C)cc2)S(=O)(=O)c2cccc([N+](=O)[O-])c2)cc1,10.6%
16,Cc1cccc2c1NC(=O)C21N2CCCC2C(C(=O)c2ccc3ccccc3c2)C12C(=O)Nc1ccccc12 (stereo not drawn),8.96%
17,Cc1ccc(NC(=O)C2CC(=O)N(c3ccc4c5c(cccc35)CC4)C2)cc1 (stereo not drawn),10.8%
18,COc1cc([N+](=O)[O-])ccc1NC(=O)CC(C)C,1.18%
19,Cc1ccccc1OCCn1cc(C=O)c2ccccc21,10.1%
20,COc1ccc(C(NC(=O)CC(C)C)c2c(O)ccc3ccccc23)cc1 (stereo not drawn),2.37%
21,CCOC(=O)c1oc2ccccc2c1COC(=O)CNC(=O)c1ccco1,-8.78%
22,NS(=O)(=O)c1ccc(NC(=O)CSc2ccccn2)cc1,19.4%
23,O=C1NC(=O)/C(=C/c2ccc(-c3cc(C(=O)O)ccc3Cl)o2)S1,14.6%

row,Structure (SMILES),"hERG current change (%, negative = inhibition) at 1uM"
1,O=C(NCC1CCCO1)c1ccc(NC(=O)C2CCCCC2C(=O)O)cc1 (stereo not drawn),10%
2,CSc1nc(O)c(C(c2ccc(OC(C)C)cc2)c2c(O)nc(SC)[nH]c2=O)c(=O)[nH]1,15%
3,CCCn1c(-c2ccc(OC)cc2)nc2ccccc21,1.14%
4,COc1ccccc1NC(=O)CN(Cc1ccco1)C(=O)c1cncc(Br)c1,-10%
5,CCCCSc1nc(N)c(NC(=O)c2ccco2)c(=O)[nH]1,16.2%
6,COC(=O)/C(C#N)=C/c1c(N2CCN(c3cccc(Cl)c3)CC2)nc2c(C)cccn2c1=O,10.6%
7,Cc1ccc(N2CC(C(=O)Nc3nnc(SCCC4OCCO4)s3)CC2=O)cc1C (stereo not drawn),12.3%
8,Cc1cn(C2OC(CC(=O)Oc3ccccc3)C(O)C2O)c(=O)[nH]c1=O (stereo not drawn),13.2%
9,CC(C)CCNC(=O)C1CCCN(S(=O)(=O)c2ccc(-n3cnnn3)cc2)C1 (stereo not drawn),23%
10,Cc1ccc(C2=NC(C)(C)N3C2C3c2ccc([N+](=O)[O-])cc2)cc1 (stereo not drawn),8.22%
11,COc1c(O)c(=O)n2c3ccccc3c3ccnc1c32,11.2%
12,CCOc1cc(/C=N/n2c(C)nc3sc(C)c(C)c3c2=O)ccc1O,1.74%
13,O=C(O)c1ccccc1/C=N/NC(=O)C1CCCCC1,-4.05%
14,Cc1c(CCC(=O)NC2CC2)c(=O)oc2c(C)c(O)ccc12,22.9%
15,COc1ccccc1N1CCN(C(=O)C2CC=CCC2C(=O)O)CC1 (stereo not drawn),4.6%
16,Cc1cc(C)c(NC(=O)CS(=O)CC(=O)N2CCN(c3ccccc3)CC2)c(C)c1 (stereo not drawn),5.61%
17,CCOc1ccc(-c2c(C(=O)N/N=C/c3ccc(O)cc3)nnn2-c2nonc2N)cc1,16.6%
18,Cc1cccc(OCC(=O)N(Cc2ccco2)c2c(N)n(Cc3ccccc3)c(=O)[nH]c2=O)c1,6.56%
19,Cc1[nH]c2ccccc2c1C(c1ccccn1)N1CCCC1 (stereo not drawn),6.13%
20,O=C(O)c1cccnc1C(=O)N1CCc2c([nH]c3ccccc23)C1C(F)(F)F (stereo not drawn),7.35%
21,CCSC1=NCCN1S(=O)(=O)c1ccc2ccccc2c1,-0.891%
22,Nc1nc(N2CCN(c3cccc(Cl)c3)CC2)n[nH]1,4.81%
23,NC(=O)c1cc(S(=O)(=O)NCCc2ccc(S(N)(=O)=O)cc2)cs1,13.3%

row,Structure (SMILES),"hERG current change (%, negative = inhibition) at 1uM"
1,CCOC(=O)Cn1c(=N)n(CCOc2cccc(C)c2)c2ccccc21.Cl,-18.2%
2,CCc1nonc1NC(=O)c1oc2cc(C)c(Cl)cc2c1C,12.6%
3,CCOC(=O)C1CCN(C(=O)c2cc3cc(C)ccc3[nH]2)CC1,11.8%
4,CN1CCN(C(=O)c2cc(C(C)(C)C)cc(C(C)(C)C)c2)CC1,14.3%
5,COc1ccc(NC(=O)CCS(=O)(=O)c2ccccc2)c(OC)c1,-4.42%
6,O=C(O)c1c2c(nc3ccc(Cl)cc13)CCC2,10.1%
7,Clc1ccc(-c2nnnn2-c2ccc(Cl)cc2)cc1,15.1%
8,CN[C@H](CC(=O)O)C(=O)O,-6.08%
9,COc1ccc(C)cc1NC(=O)Nc1ccc(C(=O)N2CCCC2)cc1,-2.21%
10,COc1ccc(OCc2nnc(SC3CCOC3=O)n2-c2ccccc2)cc1 (stereo not drawn),8.59%
11,Oc1ccc(-c2cnc(-c3ccc(O)cc3)nc2)cc1,11.7%
12,Cc1ccc(S(=O)(=O)N/N=C(\c2ccccc2)c2cccnc2)cc1,9.69%
13,CN1CCN(S(=O)(=O)c2ccc(NN)nc2)CC1,-0.494%
14,CC(C(=O)NCCCn1ccnc1)(c1ccccc1)c1ccccc1.Cl,-34.6%
15,O=C(Nc1cccnc1)c1cc(-c2cc(Cl)ccc2O)n[nH]1,8.56%
16,Cc1ccccc1S(=O)(=O)Oc1ccc2ccc(O)cc2c1,12.1%
17,CN(CCOC(=O)c1cccc(Br)c1)C(C)(C)C.Cl,-5.54%
18,O=C1N/C(=N\N=C\c2cccnc2)SC1Cc1ccc(SC(F)F)cc1 (stereo not drawn),6.93%
19,CCOc1ccc(NC(=O)COC(=O)CCN2C(=O)C3CC=CCC3C2=O)cc1OCC (stereo not drawn),2.34%
20,CCOc1ccc(NC(=O)Nc2cnccn2)cc1,14.8%
21,CCOC(=O)N1CCN(C(=O)c2c(Cl)cnn2C)CC1,2.48%
22,C=CCN1CCN(C(c2ccc(Cl)cc2)c2nnnn2CCc2ccc(OC)c(OC)c2)CC1.Cl (stereo not drawn),-3.91%
23,c1ccc(-c2nc3nonc3nc2-c2ccccc2)cc1,-2.48%

row,Structure (SMILES),"hERG current change (%, negative = inhibition) at 1uM"
1,CN1CCN(C(CNC(=O)c2ccc(Br)o2)c2ccc(F)cc2)CC1 (stereo not drawn),10.5%
2,CCCCN(NC(C)=O)c1nc(Cl)nc(NC(C)C)n1,9.87%
3,CCN(CCCNC(=O)CCCn1c(=O)[nH]c2ccccc2c1=O)c1cccc(C)c1,6.02%
4,CCOC(=O)c1sc(NC(=O)CSc2nncs2)c(C(=O)OCC)c1C,4.41%
5,O=C(Nc1ccccc1-c1nnn(CC(=O)N2CCN(c3ccccc3)CC2)n1)c1cccs1,12.1%
6,NC(=S)NC(=O)c1ccccc1,23.7%
7,CC(=O)c1cccc(NC(=O)NCc2ccc3c(c2)OCO3)c1,9.36%
8,CCCCC(=O)NCCc1cc2c(C)ccc(C)c2[nH]c1=O,18.3%
9,Cn1c(=O)n(CCc2ccccc2)c(=O)c2c1nc1n2CCCN1c1ccccc1,6.5%
10,O=C(CN1CCc2ccccc2C1)NCc1ccco1,-5.33%
11,COc1ccc(C2C(C(=O)Nc3ccccc3OC)=C(C)Nc3nnnn32)c(OC)c1 (stereo not drawn),7.88%
12,COc1ccc(NC(=O)CN(C)C(C)C(=O)N2CCCCC2)cc1 (stereo not drawn),4.98%
13,COc1ccc(OC)c(NC(=O)N2CCCC(CNS(=O)(=O)c3cccs3)C2)c1 (stereo not drawn),9.48%
14,Cc1ccc(Oc2ncccc2C(=O)NCC(=O)O)cc1,15.1%
15,Cc1nn(-c2ccccc2)c(C)c1/C=N/NC(=O)c1cc(C(C)(C)C)[nH]n1,2.45%
16,Oc1ccc(CN2CCCc3ccccc32)c2cccnc12,-1.32%
17,CCOC(=O)C1CCN(C(=O)Cn2ncc3c([nH]c4ccccc43)c2=O)CC1,9.23%
18,Fc1c(F)c(F)c(SCn2cc(Br)cn2)c(F)c1F,8.39%
19,COC(=O)c1sccc1NC(=O)c1csc2c1CCCC2,-0.863%
20,O=C(CSc1nnc2c(n1)[nH]c1ccccc12)N1CCCCC1,5.14%
21,O=C(c1ccc(CN2CCc3ccccc3C2)cc1)N1CCc2ccccc2C1,2%
